48 compounds from PubChem BioAssay AID1963576 (National Center for Advancing Translational Sciences (NCATS), 2024) can be followed below.

SMILES strings stand for the structures. The whole screen tested about 46,000 compounds, of which about 60 (0.1%) were called active. About 3% were inconclusive and are not listed. Calls follow the shape of the dose curve; as a rule, active = well fitted inhibition curve with a large enough effect; inconclusive = small, poorly fitted or top-dose-only effect; inactive = no such curve, though single readings can be large or run the other way. The list shows a part of the results.

This assay is described as follows: Primary qHTS assay for Inhibitors of ovarian cancer metastasis using an organotypic tumor microenvironment (TME) model. Also: nearly all actives have a fitted effect of over 65% in size.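 As to activity change, negative = inhibition: plate controls were DMSO wells for no effect and tomatine positive control wells for full effect.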 The conditions noted are these: SKOV3ip1-GFP adhesion/invasion on 3D omental model, fluorescence; series mostly up to 45.8 µM; activity change, negative = inhibition: at the top concentration. The procedure, abridged:
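qHTS, 4-pt dose (0.36-46 umol/L); SKOV3ip1-GFP, 1,200 cells/well, no FBS; primary omental fibroblast/mesothelial co-culture 48 h pre-grown; 2 h RT + 16 h 37 C; PBS wash, 4% PFA; GFP count 488/509 nm.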
`COc1ccc(CNC(=O)Cn2nnc(-c3ccc(C(F)(F)F)cc3)n2)cc1`: the “activity change, negative = inhibition” value is inactive: -12%.

Consider `CCOC(=O)c1ccc(N2C(=O)c3n[nH]c(C)c3C2c2cccc(Br)c2)cc1` (stereo not drawn), for which the “activity change, negative = inhibition” value was inactive: -4.8%.

On to `COc1ccccc1C(=O)Nc1ccc2oc(-c3cccc(Cl)c3Cl)nc2c1`, for which the “activity change, negative = inhibition” value is inactive: -3.68%.

For `COc1ccc(-n2c3c(cc(-c4nc(-c5ccc(C)cc5)cs4)c2=O)C(=O)CC(C)(C)C3)cc1`, the “activity change, negative = inhibition” value is inactive: -0.123%.

As for `CC(C)C(=O)NCC(c1ccc2c(c1)OCO2)N1CCN(c2ccccc2F)CC1` (stereo not drawn), the “activity change, negative = inhibition” value is inactive: 5.77%.

Take `CCOc1ccc(C(=O)NCc2nc3cccnc3n2Cc2ccc(F)cc2)cc1OCC`: the “activity change, negative = inhibition” value is inactive: -0.939%.

As for `COc1ccc(C2C(C(N)=O)=C(C)Nc3nc(SCc4ccccc4Cl)nn32)cc1OC` (stereo not drawn), the compound was called inactive.

With `CC1CCCN(C(=O)c2cc3c(=O)n(C)c4ccccc4c3s2)C1` (stereo not drawn), the “activity change, negative = inhibition” value is inactive: -23.2%.

With `Cc1sc2c(c1C)c(=O)n(-c1ccc(Cl)cc1)c(=O)n2Cc1cc(=O)n2ccccc2n1`, the “activity change, negative = inhibition” value is inactive: -0.925%.

With `O=C(NCc1ccco1)c1ccc(Cn2c(SCc3ccc(F)cc3)nc3cccnc32)cc1`, the “activity change, negative = inhibition” value is inactive: -3.2%.

For `CCOC(=O)c1ccccc1NC(=O)CSc1nc2ccncc2[nH]1`, the result was inactive.

With `Cc1ccc(CNC(=O)c2nc(SCc3ccccc3F)ncc2Cl)cc1`, the “activity change, negative = inhibition” value is inactive: 9.34%.

Regarding `Cc1cc(C)cc(NC(=O)C(=O)NCC(c2ccc3c(c2)OCO3)N2CCN(C)CC2)c1` (stereo not drawn), the “activity change, negative = inhibition” value is inactive: -14.4%.

On to `COc1ccc(NC(=O)Cn2c(=O)c(-c3cc(C)ccc3NC(C)=O)nc3ccccc32)c(OC)c1`, for which the “activity change, negative = inhibition” value was inactive: 30.8%.

Take `COc1cccc2c1ncc1c(-c3ccc(C)cc3)nn(-c3cccc([N+](=O)[O-])c3)c12`: the “activity change, negative = inhibition” value was inactive: -6.66%.

As to `Cc1cccc(-c2nnc(SCc3cc(=O)c4cccc(Cl)c4[nH]3)n2C)c1`, the “activity change, negative = inhibition” value is inactive: 8.08%.

With `CCOc1ccc(-n2c(SCC(=O)N3CCc4ccccc43)nc3c([nH]c4ccccc43)c2=O)cc1`, the “activity change, negative = inhibition” value is inactive: -9.92%.

On to `CCOC(=O)CNc1nc(Oc2ccc(=O)n(C)n2)nc(N(CC)CC)n1`, for which the result was inactive.

Regarding `Cc1cccc(-c2nc(SCC(=O)N3CCc4ccccc43)c3c(=O)n(C)c(=O)n(C)c3n2)c1`, the “activity change, negative = inhibition” value was inactive: -3.53%.

For the compound `COc1ccc(N2CCN(Cc3nc4c(c(=O)[nH]c(=O)n4C)n3Cc3ccc(Cl)cc3)CC2)cc1`, the “activity change, negative = inhibition” value was inactive: -0.387%.

On to `CCC(=O)Nc1cc(-c2cccc(C)c2)nn1-c1ccccc1`, for which the “activity change, negative = inhibition” value was inactive: 0.319%.

Consider `COc1ccc(OC)c(NC(=O)c2cc(-c3ccc(Cl)s3)nc3ccccc23)c1`, for which the outcome was inactive.

For the compound `Cc1cc(=O)[nH]c2nnc(SCC(=O)Nc3ccc(OC(F)(F)F)cc3)n12`, the outcome was inactive.

Regarding `COc1ccc(NC(=O)N(CCC(C)C)C(C)c2cccs2)c(OC)c1` (stereo not drawn), the “activity change, negative = inhibition” value is inactive: -9.73%.

Consider `O=C(COc1ccccc1)NCc1ccc2c(c1)CCN2C(=O)c1ccc(Cl)cc1`, for which the compound was classed as inactive.

Take `COCCNc1ncnc2c1c(-c1ccccc1)cn2-c1ccc(C)c(Cl)c1`: the “activity change, negative = inhibition” value was inactive: -4.15%.

With `O=C(NCc1ccco1)c1ccc2c(c1)N(Cc1ccccc1)C(=O)c1ccccc1S2(=O)=O`, the “activity change, negative = inhibition” value was inactive: 1.22%.

Regarding `COc1ccc(NC(=O)CSc2nc3c([nH]c4ccccc43)c(=O)n2-c2ccccc2)c(OC)c1`, the “activity change, negative = inhibition” value is inactive: -23.3%.

In the case of `COc1ccccc1CNC(=O)CCc1c(C)nn(-c2ccc(N3CCOCC3)nn2)c1C`, the outcome was inactive.

For the compound `NCc1nc2cccnc2n1Cc1ccccc1Cl`, the call was inactive.

`Cc1cc(S(=O)(=O)C(CNC(=O)c2ccc(OC(C)C)cc2)c2cccs2)ccc1F` (stereo not drawn): the “activity change, negative = inhibition” value was inactive: -9.22%.

For `CCN(CC)S(=O)(=O)c1ccc(NC(=O)NCc2noc3ccc(C)cc23)cc1`, the “activity change, negative = inhibition” value was inactive: -19.4%.

As to `Cc1ccc(CNC(=O)c2oc3c(c2C)-c2nn(Cc4ccc(Cl)cc4)cc2CC3)cc1`, the outcome was inactive.

As for `CCOc1ccc(NC(=O)Cn2c3ncccc3c(=O)n2-c2ccc(CC)cc2)cc1`, the compound was called inactive.

Consider `COc1ccc(-n2ncc3c(NC(C)(C)CO)ncnc32)cc1`, for which the outcome was inactive.

For the compound `Cc1ccccc1S(=O)Cc1ccc(C(=O)N2CCN(c3cccc(C)c3C)CC2)o1` (stereo not drawn), the “activity change, negative = inhibition” value is inactive: -11.6%.

As for `CC(C)CC(=O)N1c2nc(C(C)C)nn2C2(CCCCC2)[C@@H]2CCCC[C@@H]21`, the result was inactive.

`Cc1ccc2onc(CC(=O)N3CCN(c4ccc(F)cc4)CC3)c2c1`: the “activity change, negative = inhibition” value was inactive: -13.1%.

Consider `Cc1ccc(-c2c(CN3CCN(c4cccc(C)c4)C(C)C3)csc2C)cc1` (stereo not drawn), for which the “activity change, negative = inhibition” value is inactive: -1.73%.

Regarding `Cc1cc(C)c(NC(=O)Cn2cc(S(=O)(=O)Cc3ccccc3F)c3ccccc32)c(C)c1`, the result was inactive.

Take `COC(=O)c1c(NC(=O)c2cc3ccccc3c(=O)o2)sc2c1CCCC2`: the compound was classed as inactive.

Take `CCOc1ccc(CCNC(=O)c2cnc3sc(N(CC)CC)nn3c2=O)cc1OCC`: the “activity change, negative = inhibition” value is inactive: 12.8%.

Turning to `CCN(CC)CCNC(=O)c1c(C)oc2ncnc(N3CCOCC3)c12`, the “activity change, negative = inhibition” value was inactive: 9.36%.

As to `Cc1cccc(C)c1OCC(=O)Nc1ncn[nH]1`, the “activity change, negative = inhibition” value is inactive: 16.8%.

On to `Cc1c(Cl)cccc1NC(=O)CSc1ncc2c(n1)-c1ccccc1N(C)S2(=O)=O`, for which the “activity change, negative = inhibition” value is inactive: -3.17%.

As to `CC(C)c1ccc(NC(=O)c2cc3sc(Cl)cc3n2C)cc1`, the “activity change, negative = inhibition” value is inactive: -9.18%.

Consider `Cc1cccc(N(CC(O)Cn2c3ccccc3c3ccccc32)S(=O)(=O)c2ccc(F)cc2)c1` (stereo not drawn), for which the “activity change, negative = inhibition” value was inactive: -25.1%.

In the case of `O=C(NCCc1ccccc1)c1ccc2c(c1)N(Cc1ccc(F)cc1)C(=O)c1ccccc1S2(=O)=O`, the “activity change, negative = inhibition” value was inactive: 6.62%.
